Data: the supplement of paper PMC10126150
Values marked as one replicate rest on one cluster of the flow cell; about a third of the high ones do not repeat.

What follows are sequences tested on ATP (assay: switch fluorescence ratio, 500 uM ATP over buffer (Cy3 cluster intensity, sum of 5 cycles each) (fold (ratio)); higher = stronger signal-on switching upon ATP binding; sequences stand for … in TCGTCGGCAGCGTCAGATGTGTATAAGAGACAGTTTTTTTTTTTTTTTTTTTTTTTTT…TC). Conditions: aptamer strand: ATP DNA aptamer (quencher-CACCTGGGGGAGTATTGCGGAGGAAGG + anchor), 100 nM annealed; ATP concentration: 500 uM; one replicate.
How it was run: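 Switching-strand clusters labelled with Cy3 on a modified Illumina MiSeq flow-cell were annealed to 100 nM quencher-labelled ATP aptamer, imaged in selection buffer, and re-imaged after 15 min with 500 uM ATP at 22 °C. This was done over five cycles with NaOH stripping and re-annealing in between. The fluorescence ratio is summed target-cycle over summed buffer-cycle Cy3 intensity per cluster, averaged per switch-domain sequence, excluding clusters outside 100-1000 RFU.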
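Further: ATP exposure 15 min at 22 °C before imaging.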

Sequence | switch fluorescence ratio
AGATAAGAGA | 0.985
AGATAAGCC | 1.03
AGATAATCAG | 0.941
AGATACACGG | 1.08
AGATACGGGA | 1.01
AGATAGCACT | 1.06
AGATAGGGCG | 1.05
AGATAGGGTT | 0.966
AGATAGGTA | 0.978
AGATAGTTGC | 0.999
AGATATGCTT | 0.964
AGATCAACTC | 1.01
AGATCACGT | 1.01
AGATCATAGG | 1.01
AGATCCGTGT | 1
AGATCCTGCC | 1.69
AGATCCTTAG | 0.976
AGATCGAACG | 1.06
AGATCGCTGA | 1.03
AGATCGGGGA | 0.916
AGATGGATA | 0.982
AGATGGATGA | 1.03
AGATGGCGGG | 0.948
AGATGGGCCG | 1.04
AGATGGTCTA | 0.937

Sequence | switch fluorescence ratio
AGATGGTGCT | 0.976
AGATGGTTT | 1.04
AGATGTACTT | 1.04
AGATGTGCAA | 0.989
AGATTAACTT | 1.02
AGATTATCCT | 1.07
AGATTCATTA | 1.01
AGATTCGGGC | 1
AGATTCTTTG | 1.02
AGATTGAAG | 1.03
AGATTGATTT | 1.01
AGATTGCTCA | 0.978
AGATTGGATT | 1.02
AGATTTGGCC | 1.03
AGCAAAAGAC | 1.9
AGCAAACTAG | 1.09
AGCAAATTGC | 0.969
AGCAACTCTG | 1.06
AGCAAGGATA | 1.04
AGCAAGTGG | 1.03
AGCAATTG | 1.39
AGCACAACGG | 1.05
AGCACATCAA | 0.993
AGCACGCTTG | 1
AGCACTGATG | 1.02

Sequence | switch fluorescence ratio
AGCAGAGAAG | 0.952
AGCAGAGGTT | 1.03
AGCAGGAACT | 1.02
AGCAGGTTTC | 0.972
AGCAGTATTA | 0.939
AGCAGTCTTT | 1.04
AGCAGTGCCC | 1.18
AGCATAAGGA | 1.03
AGCATAATAA | 1.08
AGCATATACA | 2.15
AGCATCTACC | 1.22
AGCATGAGCC | 1.05
AGCATGCAAT | 1.07
AGCATTGTAC | 2.66
AGCCACGGTC | 1.18
AGCCATTACA | 1.02
AGCCCCGCAG | 1.73
AGCCCGAGTC | 1.05
AGCCCGCTAA | 0.997
AGCCCTGTGA | 1.04
AGCCCTTTGG | 0.999
AGCCGGATCT | 0.952
AGCCGGGATT | 0.98
AGCCGGGGCA | 0.977
AGCCGGGTGA | 1.13

Sequence | switch fluorescence ratio
AGCCGGTACG | 0.988
AGCCGTCTCA | 0.966
AGCCTAAATT | 0.986
AGCCTCTAGC | 0.972
AGCCTCTATT | 1.01
AGCGAAAGTA | 1.01
AGCGAATGTG | 1.02
AGCGAGCAAT | 2.32
AGCGATACAT | 1.98
AGCGATTTGA | 1.01
AGCGCAGAAT | 0.98
AGCGCCGACA | 1.01
AGCGCCGGGT | 1.04
AGCGCCTTCA | 1.26
AGCGCGACA | 1.01
AGCGCGGCTG | 0.951
AGCGCGGTCG | 1.06
AGCGCGGTCT | 1.04
AGCGGATGAG | 1.01
AGCGGCCGTA | 1.03
AGCGGCCGTC | 1.06
AGCGGCTTAA | 0.977
AGCGGTGAAG | 1.02
AGCGGTGACC | 1.03
AGCGGTTAG | 1.06
